Test results reported in the supplement of paper PMC7335073.
In all, about 4,100 sequences were measured (“relative CpG methylation activity (normalised to average over all NNNCGNNN flanks)”: median about 0.87, highest 2% from about 2.4 on). Some of the results follow.

These sequences were tested against DNMT3A catalytic domain (mouse) (UniProt O88508) (assay: relative CpG methylation activity (normalised to average over all NNNCGNNN flanks) (relative (1 = mean)); higher = more methylation of the central CpG). Settings: system: in vitro, murine catalytic domain; CpG state: hemimethylated substrate pool; residues: 608-908.
Description: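 Deep enzymology: a pool of dsDNA substrates with a central CpG flanked by 10 random nucleotides on each side was methylated by the murine DNMT3A or DNMT3B catalytic domain (0.8 mM SAM, 37 °C, 60 min). Methylation was then read out by hairpin ligation, bisulfite conversion and NGS. Values are the average methylation of each NNNCGNNN context (±3 flanks; the outer flanks are random and averaged over), normalised to the overall mean, so 1 = average activity.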

Row | Sequence | relative CpG methylation activity
1 | TTCCGTCA | 2.29
2 | CTTCGCTT | 1.78
3 | CACCGCAA | 0.673
4 | CGTCGGTG | 0.167
5 | TCCCGGGG | 0.435
6 | ACTCGTAA | 1.27
7 | GCACGTTC | 1.11
8 | TGGCGCTC | 1.43
9 | CGGCGGTA | 0.278
10 | AGACGTTT | 0.455
11 | TTTCGCCA | 1.69
12 | CCGCGAGG | 0.246
13 | GGGCGAGA | 0.847
14 | ATCCGAAA | 1.81
15 | GTACGGTA | 1.05
16 | AACCGAGC | 1.56
17 | CGGCGAGG | 0.323
18 | TAACGCGT | 0.545
19 | GAGCGCCC | 1.38
20 | GTGCGATA | 1.26
21 | TGCCGACT | 0.738
22 | GGGCGAAA | 0.847
23 | CTACGTTG | 1.15
24 | ACTCGCCA | 1.66
25 | ACGCGTTA | 0.973

Row | Sequence | relative CpG methylation activity
26 | TGACGTCG | 1.02
27 | GCACGTTT | 0.988
28 | AATCGCAC | 0.435
29 | GATCGATA | 0.331
30 | CTTCGACG | 1.03
31 | CGCCGAAA | 0.89
32 | CTACGTGG | 0.594
33 | TTCCGTGC | 1.52
34 | GCGCGGGT | 0.854
35 | TACCGTCC | 1.49
36 | AAGCGATC | 1.05
37 | GGGCGAAT | 0.556
38 | ACACGTCC | 2.46
39 | GAACGAAA | 0.751
40 | TTTCGATG | 0.37
41 | ATTCGGGA | 0.388
42 | TTCCGTAT | 1.21
43 | TCACGTCC | 1.98
44 | GAGCGCGG | 0.2
45 | AAGCGAGT | 0.688
46 | TTTCGGGC | 0.847
47 | AAACGCGA | 0.522
48 | TAGCGCGT | 0.44
49 | TTTCGAGC | 1.36
50 | ATCCGCTC | 2.37

Row | Sequence | relative CpG methylation activity
51 | CTACGTGT | 1.07
52 | CATCGGCA | 0.688
53 | CAACGAAG | 0.407
54 | TTCCGTAG | 1.16
55 | GAGCGCCT | 1.95
56 | GAACGTCA | 1.21
57 | ACACGTGT | 0.793
58 | TTACGTGA | 1.35
59 | GGGCGCAC | 0.992
60 | GCGCGTTA | 0.739
61 | TCGCGGGG | 0.455
62 | CAGCGATG | 0.355
63 | GCACGTAG | 1.1
64 | CCCCGCTC | 2.05
65 | CCACGGAC | 1.87
66 | ACGCGGGC | 0.651
67 | GACCGTAC | 0.889
68 | AGTCGCTA | 0.625
69 | TGCCGAAC | 1.18
70 | GCTCGTGT | 0.455
71 | TGTCGGCG | 0.274
72 | ACCCGGAC | 1.26
73 | TCGCGCAT | 0.694
74 | ACCCGTAA | 1.35
75 | GTACGTAC | 1.62

Row | Sequence | relative CpG methylation activity
76 | CGTCGGCC | 1.19
77 | TGTCGTGA | 0.426
78 | AACCGTGA | 0.361
79 | TCACGTTT | 0.84
80 | ATACGGTT | 1.52
81 | CAGCGGAG | 0.181
82 | GACCGGAC | 1.12
83 | CAGCGCAT | 0.685
84 | GACCGACC | 1.32
85 | GTTCGTGA | 0.867
86 | ACCCGACT | 1.63
87 | TCACGTTC | 1.59
88 | GTGCGCTG | 1.96
89 | CCGCGCAT | 0.849
90 | CTGCGCGC | 1.65
91 | AGTCGAGT | 0.202
92 | TAACGATT | 0.7
93 | TATCGGAC | 0.455
94 | ATGCGGAC | 1.15
95 | CATCGGCG | 0.7
96 | CGTCGGTT | 0.338
97 | TCTCGCAG | 0.474
98 | GCTCGGAA | 0.694
99 | GCGCGAAA | 1.33
100 | GGTCGCCG | 1.12

Row | Sequence | relative CpG methylation activity
101 | TCTCGCCC | 1.75
102 | TAACGTCC | 1.6
103 | ATCCGCCC | 2.96
104 | ACACGCAC | 1.72
105 | ATGCGGAG | 0.64
106 | AGACGTAC | 0.913
107 | CGCCGTGC | 0.381
108 | GCTCGCGA | 0.766
109 | TCGCGTGA | 0.318
110 | GAACGGGT | 0.55
111 | CATCGCCA | 1.26
112 | GTGCGGAC | 1.42
113 | GTTCGTGG | 0.122
114 | TGGCGTTG | 0.385
115 | AGGCGTGA | 0.18
116 | TGGCGTAA | 0.472
117 | TAACGGCT | 0.878
118 | CTCCGGCC | 2.01
119 | AACCGATC | 1.34
120 | ACACGGAC | 1.51
121 | GACCGGTC | 1.01
122 | TTTCGCAT | 1.15
123 | GACCGGGT | 0.652
124 | CACCGAAC | 1.18
125 | CCCCGTTC | 1.46

Row | Sequence | relative CpG methylation activity
126 | AACCGTAC | 0.749
127 | GGCCGGTC | 0.797
128 | GGGCGGGA | 0.476
129 | GCACGACG | 0.957
130 | GGGCGCAT | 1.04
131 | TCCCGTGG | 0.213
132 | AACCGGCA | 0.893
133 | GAGCGTTT | 0.114
134 | CGGCGCGG | 0.0694
135 | CGCCGTCA | 1.44
136 | GAGCGCGA | 0.709
137 | TGACGGTG | 0.444
138 | GGCCGGCT | 0.794
139 | CCGCGCCC | 2
140 | TCCCGTCC | 1.69
141 | ATCCGTTT | 1.21
142 | CAGCGAGT | 0.222
143 | TGCCGAAT | 0.723
144 | CCTCGGTA | 0.971
145 | ATACGTGA | 1.2
146 | GGGCGTAG | 0.488
147 | GCGCGTAA | 1.15
148 | TGTCGGAG | 0.025
149 | GTCCGGAG | 0.714
150 | GAACGAGC | 1.12

Row | Sequence | relative CpG methylation activity
151 | GCACGCTC | 1.98
152 | CCTCGTGG | 0.455
153 | GGCCGCGG | 0.347
154 | ATACGCAA | 1.73
155 | TGGCGCGT | 0.455
156 | ACCCGAGT | 1.17
157 | GTGCGGCG | 1.52
158 | CCGCGTTG | 0.667
159 | ACTCGGGC | 0.99
160 | CCACGTAT | 1.19
161 | TCGCGCCA | 1.52
162 | TCACGGAG | 0.781
163 | TGGCGTTT | 0.246
164 | CGTCGGCG | 0.658
165 | TTACGACA | 2.29
166 | AGTCGATC | 0.609
167 | TCCCGGGC | 0.909
168 | TCGCGAGG | 0.431
169 | TTCCGAGA | 1.52
170 | TCCCGACA | 1.52
171 | CTTCGTGC | 0.758
172 | CAACGGAC | 0.974
